Data on one compound can be found in patent publication US11903917B2, “MEK-inhibitor for the treatment of viral and bacterial infections” (priority 2017, dated 2024).

For the assay, the system named is MRSA strain S. aureus (USA300). Briefly: Cell-free culture bacterial growth (OD600). The note with it: Staphylococcus aureus, 6 h, read-out: concentration needed to inhibit 50% of bacterial growths. The method, then:
Bacterial growth was monitored for 360 minutes.
For investigation of the concentrations of PD-0184264 needed to inhibit bacterial growth, PD-0184264 was administrated in different concentrations (as indicated in FIG. 3) to an over-night culture of S. aureus USA300 (MRSA). MRSA bacteria were incubated with different concentrations of the MEK inhibitor ranging from 0-100 μM and bacterial growth was monitored six hours after cultivation. The concentration needed to inhibit 50% of bacterial growths was in the range of 15-25 μM.

Consider `O=C(O)c1ccc(F)c(F)c1Nc1ccc(I)cc1Cl` [PD-0184264, 2-(2-chloro-4-iodophenylamino)-N-3,4-difluoro benzoic acid], for which the IC50 was 15 to 25 µM.
